Test results as given in the supplement of paper PMC3334620.
Whole data set: some 33,000 sequences, median “E-score (-0.5 to 0.5)” near -0.032, cut for the highest 2% near 0.36. The list shows a part of the results.

What follows are sequences tested against T1, Sko1 (UniProt Q02100) (assay: PBM E-score (8-mer binding enrichment) (E-score (-0.5 to 0.5)); higher = stronger / more preferred TF binding; most listed sequences are background and not binding sites). Settings: protein concentration: 200 nM; construct: GST-full length.
T1 sequence: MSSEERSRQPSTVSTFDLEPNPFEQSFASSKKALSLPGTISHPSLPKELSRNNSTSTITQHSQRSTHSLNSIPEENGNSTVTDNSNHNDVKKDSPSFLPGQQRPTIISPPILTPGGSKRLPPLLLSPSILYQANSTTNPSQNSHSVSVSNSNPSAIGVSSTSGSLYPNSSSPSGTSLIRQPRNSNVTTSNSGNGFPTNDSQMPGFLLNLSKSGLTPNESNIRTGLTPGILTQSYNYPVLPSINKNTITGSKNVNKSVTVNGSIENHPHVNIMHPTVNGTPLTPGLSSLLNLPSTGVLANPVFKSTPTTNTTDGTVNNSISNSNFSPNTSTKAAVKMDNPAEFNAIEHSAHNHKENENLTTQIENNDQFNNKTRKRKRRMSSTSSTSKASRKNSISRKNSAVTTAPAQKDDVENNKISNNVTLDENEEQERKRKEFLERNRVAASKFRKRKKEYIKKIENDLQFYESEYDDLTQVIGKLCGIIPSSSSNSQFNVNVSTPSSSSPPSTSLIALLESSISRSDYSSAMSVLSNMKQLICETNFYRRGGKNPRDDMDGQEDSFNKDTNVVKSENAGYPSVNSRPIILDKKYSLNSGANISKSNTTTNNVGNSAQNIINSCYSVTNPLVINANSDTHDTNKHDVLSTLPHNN
How it was run: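 PURExpress in vitro transcription/translation supplied GST-tagged yeast transcription factors, either full-length or DNA-binding domain. Applied at about 100-200 nM to universal all-10-mer Agilent arrays double-stranded by primer extension, the bound protein was detected with fluorescent anti-GST. E-scores, modified Wilcoxon-Mann-Whitney statistics, were given by the Universal PBM Analysis Suite to ungapped eight-base words pooled with their reverse complements after masliner normalisation.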

Sequence	PBM E-score
AAGCAGAG	0.0145
ACGCGACA	0.249
GCACTTTA	0.0809
ATCTCGGG	-0.0957
GCAGACCA	-0.111
CATCTTAG	0.108
ATCGATAG	0.0346
GTTTACCA	0.094
AGCGTCCC	-0.14
ATGCCAAT	-0.0575
GAATAAAC	0.0692
GTAGGGGA	-0.186
ATCACCTC	0.175
ACGCGACT	0.155
GCGTGGTA	-0.0393
ACGAGGAA	0.00288
CCGTCGCA	-0.244
CAATACGG	-0.0873
AGCAAGTG	-0.0729
CATTCGGG	-0.125
ATTGGAGG	-0.123
ACTAGCTC	0.0539
CCGTCTCA	-0.0524
GCGCGTCA	0.424
AATTTATA	0.275

Sequence	PBM E-score
CATGAAGG	-0.108
GCATCCAA	-0.193
ATGCGACC	-0.011
CGACTACC	-0.221
CTTGTTAC	0.094
ATGGTTAA	0.0259
AAGGCCTT	-0.158
AGGGTACG	0.148
ATCCTAGA	-0.0719
ACAGTAGA	0.164
CAGTAGGG	-0.265
ACGTCCCC	0.126
AGTGTGAC	0.254
GGCGCGGA	-0.283
ATAGTCGG	-0.252
CCGAAGCC	-0.319
CAGTGCGA	-0.0618
CCGGACTC	-0.16
AGCTGATG	0.0985
AATCCCCT	-0.258
AATTAGTC	0.14
GCCCAACA	-0.296
CAGTACAG	-0.165
CAGGCTTC	-0.242
ACTGGTCA	-0.0838

Sequence	PBM E-score
GATTATAA	0.141
AAAGGATA	0.124
AGCGGTAC	0.045
ATTGAGAG	-0.0822
AAGGGCAT	-0.0336
GTCTCAAC	-0.0146
AGTCCGAT	-0.153
AATCACAA	0.0722
CGGCTCAC	-0.176
AATGGAAA	0.0019
CCGGGGAA	-0.271
CGCGAGCC	-0.0768
GCAGAGAA	0.0458
GCCGGTCC	-0.412
ATACGGCA	0.153
AACACTAG	-0.0607
ACGTGTAT	0.414
CCGCGCTA	-0.099
CTAGATAA	0.0553
ATCCTCTG	-0.0709
AATTGCAT	0.115
GCGATACA	0.0437
ATGGCCCC	-0.362
CGAAGTAA	0.15
ACATCTGA	-0.139

Sequence	PBM E-score
ATATCAAT	0.245
CAGAATTA	0.097
CAGTGGCA	-0.165
AGGGATGA	0.0451
CAGCAAGG	-0.16
GAGGAAGA	-0.0544
ACAAATGT	0.078
GTTCCATA	-0.152
AGCTGCAT	0.0894
CACCTACG	0.336
ATACTAGA	0.219
TTCCAAAA	0.0151
AACGACTG	-0.00169
CGCGGGTA	-0.122
AAATTTCC	0.0298
AGTAGGAT	0.0173
ATGAGTTA	0.152
GACTTCTC	-0.166
CATTGTCA	0.0571
CGAAAGCA	-0.0654
AGGTAGAC	-0.15
ATAGGGTC	-0.273
CAACGTGG	0.23
CCAACCCC	-0.0968
ACCATTAC	0.174

Sequence	PBM E-score
TGCACCCA	-0.0673
GAGCGGAC	-0.251
TATATCGA	0.173
ATTCACTA	0.113
GTGTACCA	0.156
CCAGGACC	-0.313
CTCGCGTA	0.212
GATGTGGC	-0.105
AAAGCCCT	-0.31
GCGTCCCA	-0.193
TAGTATAA	0.24
CGTAAGAC	0.4
ATCTGGGG	-0.209
TGAAACAA	0.183
TACGCAGA	0.274
AACCTCCG	-0.173
GGACAACC	-0.179
CGAGGCCC	-0.301
CCCTGAGA	-0.263
ATCCATGC	-0.0946
CCAACGTA	0.387
AAGATCCG	-0.082
GGTTTAGA	-0.143
ACTGTGCC	-0.0308
CTAACGAC	0.108

Sequence	PBM E-score
ACAGAGAC	-0.0712
CGCTAAGC	-0.0386
AGTCATTA	0.032
AGGACTGA	-0.146
ACACTCGC	-0.116
GTAGGTCA	0.079
CGGTGGTA	-0.154
GCCAATCA	-0.0617
GAGGCAGC	-0.2
GAGTTGGA	-0.0363
GACATCCA	0.0111
CATATCGC	0.0243
GGGGGAAC	-0.302
ACCTGCAC	-0.126
GAAATTGC	0.133
GGTTACAC	0.0583
AAACCACG	0.174
CCCGAGAC	-0.135
ATTTGACG	0.359
GCAACTCC	-0.198
CCTCCCTC	-0.137
GAACCCAA	-0.145
ATCAGATG	-0.021
GGATCTCA	-0.271
AATGCGGC	-0.067

Sequence	PBM E-score
CGTGATAC	0.234
GTATGGGA	-0.13
GCGCGAAC	-0.068
ATTGTGCC	-0.198
AGTGGTAG	-0.0361
CAAAGTCG	-0.0592
ATGGTAGG	-0.278
ACCGAAAC	0.00583
TCCAACGA	0.00689
CAGTACGA	0.13
CTAGATTA	0.194
CTTAGGGC	-0.337
CTATAAAC	0.137
CTACGCCC	-0.0734
AACGGGAT	-0.0797
TAGTTCGA	-0.0338
AGTAGGGC	-0.158
CCACCAGG	-0.371
ACCCTTTG	-0.375
CGTTTTAC	0.209
GTGAGTAA	0.0274
ACGTCGCC	0.327
